# Laboratory results reported in PubChem BioAssay AID463173 (ICCB-Longwood Screening Facility, Harvard Medical School, 2010).
# The whole screen tested about 52,000 compounds, of which about 4,300 (8.3%) were called active. No stated cut-off is given here; in the data, active means survival mostly below about 52% (no sharp cut-off); inactive means mostly above about 56%. This is one part of the list.
# System: DeltatarO mutant
# Assay: growth inhibition of S. aureus wild type versus tarO mutant, primary screen, teichoic acid synthesis inhibitors, RN4220, OD600 (AID 463173)
# Conditions: OD600, 18 h, active compounds read low, screened at 18.75 µg/mL (by protocol)
row,SMILES,survival
1,O=C(CN(Cc1ccccc1Cl)C(=O)c1ccc(CN2CCOCC2)o1)NCc1ccccc1,inactive: 105%
2,CCc1nn(CC(=O)Nc2ccc(NC(C)=O)cc2)c(=O)c2cc3sccc3n12,inactive: 87%
3,COc1ccc(CNC(=O)CSc2c3c(nc4ccc(Cl)cc24)CCCC3)cc1,inactive: 77%
4,O=C(CCCn1c(=O)c2cccn2c2ccccc21)NCc1ccccc1Br,active: 43%
5,Cc1ccc(Nc2sc(C(=O)c3ccccc3)c(N)c2C(N)=O)cc1,inactive: 124%
6,CC1CCN(C(=O)C2COc3ccccc3C2)CC1 (configuration not stated),inactive: 57%
7,O=C(NC1CCCCC1)C(c1ccc(F)cc1)N(Cc1ccco1)C(=O)c1ccccn1 (configuration not stated),inactive: 70%
8,Cc1cccc(NC(=O)c2oc3ccccc3c2NC(=O)Cc2coc3ccc(C(C)C)cc23)c1,inactive: 67%
9,O=[N+]([O-])c1cc(-c2nc(-c3ccccc3)no2)ccc1N1CCOCC1,inactive: 65%
10,COc1ccc(-c2nc(CCNC(=O)c3ccc(Br)o3)cs2)cc1,inactive: 122%
11,CCOc1ccccc1NC(=O)C1=C(C)Nc2ncnn2C1c1ccc(C)o1 (configuration not stated),inactive: 70%
12,CCc1ccccc1NC(=O)Cn1c(SCc2ccc(F)cc2)nc2ccncc21,active: 36%
13,CCc1cccc(CC)c1NC(=O)CCS(=O)(=O)c1ccc2c(c1)CCN2C(C)=O,inactive: 92%
14,COc1ccc(-c2nc(CNS(=O)(=O)c3cccc(F)c3)cs2)cc1,inactive: 89%
15,CC1(C)CC(=O)C2=C(C1)NCN(Cc1ccccc1)C2,inactive: 87%
16,COc1ccc(OC)c(CNCc2c(C(=O)O)n(Cc3cccc(F)c3)c3cc(OC)ccc23)c1,active: -1%
17,Cc1ccc(C(c2c(O)cc(C)n(Cc3ccco3)c2=O)N2CCC(C)CC2)cc1 (configuration not stated),inactive: 80%
18,NC(=O)CN(C1CCCCC1)S(=O)(=O)c1ccc(Br)cc1,inactive: 96%
19,Cc1cc(-c2ccc(C)c(S(=O)(=O)NCC3CCN(Cc4ccccc4F)CC3)c2)on1,inactive: 55%

row,SMILES,survival
1,CC(C)(O)/C(=C\C#N)n1c(=O)oc2ccccc21,inactive: 85%
2,Cc1ccc(SCC(=O)Nc2ccc3oc(-c4cccc(Cl)c4)nc3c2)cc1,inactive: 72%
3,O=C(Cn1ncc2c3ccccc3n(Cc3ccc(F)cc3)c2c1=O)NCc1ccccn1,inactive: 79%
4,O=C(NCc1ccccc1)C(=O)Nc1c2c(nn1-c1ccccc1)CSC2,inactive: 87%
5,CS(=O)(=O)c1ccc2sc(N)nc2c1,inactive: 74%
6,CCOC(=O)c1cccc(NC(=O)c2cnc3sc(N4CCOCC4)nn3c2=O)c1,inactive: 90%
7,Cc1ccc2c(c1)c1c(c(=O)n(Cc3ccccc3)c(=O)n1CC(=O)Nc1ccccc1F)n2C,inactive: 75%
8,Cc1ccccc1CCNC(=O)c1ccc2c(c1)nc1n2CCCCC1,inactive: 83%
9,Cc1cc(C)cc(NC(=O)C2CC(=O)N(c3ccccc3)C2)c1 (configuration not stated),inactive: 78%
10,Cc1ccc(-c2nc3ccccc3o2)cc1NC(=O)Cc1ccc(Cl)cc1,inactive: 73%
11,O=C(CCn1c(=O)c2sccc2n(Cc2ccc(F)cc2Cl)c1=O)NCc1ccc2c(c1)OCO2,inactive: 83%
12,O=C(Nc1sc2c(c1C(=O)NCC1CCCO1)CCCC2)c1cc(=O)c2ccccc2o1 (configuration not stated),inactive: 50%
13,Cc1cccc(-c2nc(CN3CCCC(C(=O)NCCc4ccc(Cl)cc4)C3)c(C)o2)c1 (configuration not stated),active: 34%
14,COc1ccc(OC)c(S(=O)(=O)NCC(c2cccs2)S(=O)(=O)c2ccc(F)cc2)c1 (configuration not stated),inactive: 106%
15,Cc1cc(F)ccc1NC(=O)C1CCC(CNS(=O)(=O)c2ccc3c(c2)CCCC(=O)N3)CC1 (configuration not stated),inactive: 80%
16,CCCS(=O)(=O)N1CCC(C(=O)NCCOC)CC1,inactive: 67%
17,Cc1ccccc1NC(=O)c1sc2nc3c(cc2c1N)CN(Cc1ccccc1)CC3,inactive: 90%
18,Cc1nc2ncccn2c1-c1csc(NCc2ccco2)n1,inactive: 80%
19,O=C(O)c1ccc(Cn2c(SCc3ccc(F)cc3)nc3ccncc32)cc1,inactive: 88%

row,SMILES,survival
1,COCCNc1ccc2cc(S(=O)(=O)N3CCCCC3)ccc2n1,inactive: 84%
2,COCCNC(=O)CCCn1c(SCC(=O)NCc2ccc(C)cc2)nc2c(sc3ccccc32)c1=O,inactive: 87%
3,CCC(C)NC(=O)c1sc2nc(C)c(C(=O)Nc3ccc(C)cc3C)c(-c3ccc(NC(C)=O)cc3)c2c1N (configuration not stated),inactive: 88%
4,Cc1ccccc1OCCn1cc(/C=C(\C#N)C(=O)NC2CC2)c2ccccc21,inactive: 58%
5,Cc1ccccc1Cn1c(=O)n(-c2ccc(Cl)cc2)c(=O)c2c3c(sc21)CCCC3,inactive: 114%
6,CCc1ccc(NS(=O)(=O)c2[nH]ncc2C(=O)OC)cc1,inactive: 64%
7,COc1ccc(Cn2c(C(=O)O)c(CNCc3ccc(SC)cc3)c3ccc(OC)cc32)cc1,inactive: 56%
8,CC(C)NC(=O)CN1C(=O)CCn2nc(-c3cn(C)c4ccccc34)cc21,inactive: 102%
9,COc1ccc(N2C(=O)CSC23C(=O)N(Cc2cccc(F)c2)c2ccccc23)cc1Cl (configuration not stated),inactive: 93%
10,O=S(=O)(c1ccc2nc(N3CCN(c4ccccc4F)CC3)ccc2c1)N1CCCCC1,inactive: 115%
11,Cc1nc(-n2nc(C)c(CCC(C)C)c2C)sc1C(=O)Nc1ccc(Cl)cc1,inactive: 56%
12,Cc1ccc(-n2nc(C)c3c(C)cc(=O)n(CC(=O)Nc4cccc(C)c4C)c32)cc1,inactive: 123%
13,O=C(Nc1cc2c(cc1C(=O)c1ccccc1Br)OCCO2)c1cccc(Cl)c1,inactive: 58%
14,O=C(c1cc2c(=O)oc3ccccc3c2s1)N1CCN(c2ccccc2)CC1,inactive: 169%
15,COc1ccc2c(c1)c1c(c(=O)n(-c3cccc(C)c3)c(=O)n1Cc1cccc(Cl)c1)n2C,inactive: 84%
16,COc1ccccc1CNc1ncnc2c1cnn2-c1ccc(C)cc1,inactive: 102%
17,COc1ccc(C(C(=O)NC2CCCCC2)N(Cc2ccc3c(c2)OCO3)C(=O)c2cnccn2)cc1OC (configuration not stated),inactive: 82%
18,COc1ccc(-c2nn(-c3ccccc3)cc2C2NC(=O)NC(C)=C2C(=O)OC(C)C)cc1OC (configuration not stated),inactive: 80%
19,Cc1ccc(-c2noc(-c3nnn(-c4cccc(C(F)(F)F)c4)c3N)n2)cc1,inactive: 90%
